# Experimental data taken from the supplement of paper PMC8728848.
# The other results are listed elsewhere or left out.
# Columns and labels:
# Test in all cases: glycan array binding signal (z-score within array); higher = stronger binding
# Conditions in all cases: glycan notation: IUPAC condensed, linker removed
# [1] = biological target: Fuc(a1-2)[GalNAc(a1-3)]Gal(b1-4)[Fuc(a1-3)]GlcNAc
# Summary of the method: (§1)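 Arrays were curated from the Consortium for Functional Glycomics database, 3228 in total, and kept only where the protein sequence was available. Binding is expressed as a within-array Z-score. This score was averaged across arrays of the same protein sequence at different concentrations or buffers and across linkers, and negative values can be read as non-binding.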
# [2] = biological target: Fuc(a1-2)[GalNAc(a1-4)]Gal(b1-4)GlcNAc
# Summary of the method: as §1
# [3] = biological target: Fuc(a1-2)[GalNAc(b1-3)]Gal
# Summary of the method: as §1
# Fuc(a1-3)GlcNAc = biological target: Fuc(a1-3)GlcNAc
# Summary of the method: as §1
# [4] = biological target: Fuc(a1-3)[Gal(b1-4)]Glc6S
# Summary of the method: as §1
# [5] = biological target: Fuc(a1-3)[Gal(b1-4)]GlcNAc
# Summary of the method: as §1
# [6] = biological target: Fuc(a1-3)[Gal(b1-4)]GlcNAc(b1-2)Man(a1-3)[Fuc(a1-3)[Gal(b1-4)]GlcNAc(b1-2)Man(a1-6)]Man(b1-4)GlcNAc(b1-4)GlcNAc
# Summary of the method: as §1
# [7] = biological target: Fuc(a1-3)[Gal(b1-4)]GlcNAc(b1-2)Man(a1-6)[Gal(b1-4)GlcNAc(b1-2)Man(a1-3)]Man(b1-4)GlcNAc(b1-4)GlcNAc
# Summary of the method: as §1
# [8] = biological target: Fuc(a1-3)[Gal(b1-4)]GlcNAc(b1-3)Gal(b1-3)[Fuc(a1-4)]GlcNAc
# Summary of the method: as §1
# [9] = biological target: Fuc(a1-3)[Gal(b1-4)]GlcNAc(b1-4)Gal(b1-4)[Fuc(a1-3)]GlcNAc
# Summary of the method: as §1
# [10] = biological target: Fuc(a1-3)[Gal(b1-4)]GlcNAc(b1-4)Gal(b1-4)[Fuc(a1-3)]GlcNAc(b1-4)Gal(b1-4)[Fuc(a1-3)]GlcNAc
# Summary of the method: as §1
# [11] = biological target: Fuc(a1-3)[Gal(b1-4)]GlcNAc6S
# Summary of the method: as §1
# [12] = biological target: Fuc(a1-3)[Gal3S(b1-4)]Glc6S
# Summary of the method: as §1
# [13] = biological target: Fuc(a1-3)[Gal3S(b1-4)]GlcNAc
# Summary of the method: as §1
# [14] = biological target: Fuc(a1-3)[Gal3S(b1-4)]GlcNAc6S
# Summary of the method: as §1
# [15] = biological target: Fuc(a1-3)[GalNAc(b1-4)]GlcNAc
# Summary of the method: as §1
# Fuc(a1-4)GlcNAc = biological target: Fuc(a1-4)GlcNAc
# Summary of the method: as §1
# Fuc(b1-3)GlcNAc = biological target: Fuc(b1-3)GlcNAc
# Summary of the method: as §1
# Gal(a1-2)Gal = biological target: Gal(a1-2)Gal
# Summary of the method: as §1
# Gal(a1-3)Gal = biological target: Gal(a1-3)Gal
# Summary of the method: as §1
# Gal(a1-3)Gal(b1-3)GlcNAc = biological target: Gal(a1-3)Gal(b1-3)GlcNAc
# Summary of the method: as §1
# Gal(a1-3)Gal(b1-4)Glc = biological target: Gal(a1-3)Gal(b1-4)Glc
# Summary of the method: as §1
# Gal(a1-3)Gal(b1-4)GlcNAc = biological target: Gal(a1-3)Gal(b1-4)GlcNAc
# Summary of the method: as §1
# [16] = biological target: Gal(a1-3)Gal(b1-4)[Fuc(a1-3)]GlcNAc
# Summary of the method: as §1
# Gal(a1-3)GalNAc = biological target: Gal(a1-3)GalNAc
# Summary of the method: as §1
# [17] = biological target: Gal(a1-3)[Gal(a1-4)]Gal(b1-4)GlcNAc
# Summary of the method: as §1
# Gal(a1-4)Gal(b1-4)Glc = biological target: Gal(a1-4)Gal(b1-4)Glc
# Summary of the method: as §1
# Gal(a1-4)Gal(b1-4)GlcNAc = biological target: Gal(a1-4)Gal(b1-4)GlcNAc
# Summary of the method: as §1
# Gal(a1-4)GlcNAc = biological target: Gal(a1-4)GlcNAc
# Summary of the method: as §1
# Gal(a1-6)Glc = biological target: Gal(a1-6)Glc
# Summary of the method: as §1
# Gal(b1-2)Gal = biological target: Gal(b1-2)Gal
# Summary of the method: as §1
# Gal(b1-3)Gal = biological target: Gal(b1-3)Gal
# Summary of the method: as §1
# Gal(b1-3)Gal(b1-4)GlcNAc = biological target: Gal(b1-3)Gal(b1-4)GlcNAc
# Summary of the method: as §1
# Gal(b1-3)GalNAc = biological target: Gal(b1-3)GalNAc
# Summary of the method: as §1
# [18] = biological target: Gal(b1-3)GalNAc(b1-3)Gal(a1-4)Gal(b1-4)Glc
# Summary of the method: as §1
# [19] = biological target: Gal(b1-3)GalNAc(b1-4)Gal(b1-4)Glc
# Summary of the method: as §1
# [20] = biological target: Gal(b1-3)GalNAc(b1-4)[Neu5Ac(a2-3)]Gal(b1-4)Glc
# Summary of the method: as §1
# Gal(b1-3)GlcNAc = biological target: Gal(b1-3)GlcNAc
# Summary of the method: as §1
# [21] = biological target: Gal(b1-3)GlcNAc(b1-2)Man(a1-3)[Gal(b1-3)GlcNAc(b1-2)Man(a1-6)]Man(b1-4)GlcNAc(b1-4)GlcNAc
# Summary of the method: as §1
# [22] = biological target: Gal(b1-3)GlcNAc(b1-3)Gal(b1-3)GlcNAc
# Summary of the method: as §1
# [23] = biological target: Gal(b1-3)GlcNAc(b1-3)Gal(b1-4)Glc
# Summary of the method: as §1
# [24] = biological target: Gal(b1-3)GlcNAc(b1-3)Gal(b1-4)GlcNAc
# Summary of the method: as §1
# [25] = biological target: Gal(b1-3)[Fuc(a1-4)]GlcNAc
# Summary of the method: as §1
# [26] = biological target: Gal(b1-3)[Fuc(a1-4)]GlcNAc(b1-3)Gal(b1-3)[Fuc(a1-4)]GlcNAc
# Summary of the method: as §1
# [27] = biological target: Gal(b1-3)[Fuc(a1-4)]GlcNAc(b1-3)Gal(b1-4)GlcNAc
# Summary of the method: as §1
binder,measurement,setting,value
GH95CBM (Clostridium perfringens) (protein) EKVAVETSVYLSELEWKSASTGYGEIQKDASCDGNTITLKGENGEKVSYDKGIGTHAHSEIVYSLEGLDYYDYFETFVGVDQEMAGTVASISFEVYLDNEKVFDSGLMTGDTTQKHVKVPIAGKNTLKLVVKDGGDSIGSDHGSFGDAKLT,glycan array binding signal (z-score),[1],-0.285
same,glycan array binding signal (z-score),[2],-0.158
same,glycan array binding signal (z-score),[3],-0.089
same,glycan array binding signal (z-score),Fuc(a1-3)GlcNAc,0.521
same,glycan array binding signal (z-score),[4],-0.278
same,glycan array binding signal (z-score),[5],-0.32
same,glycan array binding signal (z-score),[6],-0.268
same,glycan array binding signal (z-score),[7],-0.317
same,glycan array binding signal (z-score),[8],-0.299
same,glycan array binding signal (z-score),[9],-0.262
same,glycan array binding signal (z-score),[10],-0.323
same,glycan array binding signal (z-score),[11],-0.332
same,glycan array binding signal (z-score),[12],0.313
same,glycan array binding signal (z-score),[13],-0.285
same,glycan array binding signal (z-score),[14],-0.178
same,glycan array binding signal (z-score),[15],0.496
same,glycan array binding signal (z-score),Fuc(a1-4)GlcNAc,-0.353
same,glycan array binding signal (z-score),Fuc(b1-3)GlcNAc,-0.367
same,glycan array binding signal (z-score),Gal(a1-2)Gal,-0.294
same,glycan array binding signal (z-score),Gal(a1-3)Gal,-0.232
same,glycan array binding signal (z-score),Gal(a1-3)Gal(b1-3)GlcNAc,-0.324
same,glycan array binding signal (z-score),Gal(a1-3)Gal(b1-4)Glc,-0.251
same,glycan array binding signal (z-score),Gal(a1-3)Gal(b1-4)GlcNAc,-0.375
same,glycan array binding signal (z-score),[16],4.88
same,glycan array binding signal (z-score),Gal(a1-3)GalNAc,1.84
same,glycan array binding signal (z-score),[17],-0.183
same,glycan array binding signal (z-score),Gal(a1-4)Gal(b1-4)Glc,-0.347
same,glycan array binding signal (z-score),Gal(a1-4)Gal(b1-4)GlcNAc,-0.341
same,glycan array binding signal (z-score),Gal(a1-4)GlcNAc,-0.285
same,glycan array binding signal (z-score),Gal(a1-6)Glc,-0.357
same,glycan array binding signal (z-score),Gal(b1-2)Gal,2.38
same,glycan array binding signal (z-score),Gal(b1-3)Gal,-0.363
same,glycan array binding signal (z-score),Gal(b1-3)Gal(b1-4)GlcNAc,-0.308
same,glycan array binding signal (z-score),Gal(b1-3)GalNAc,0.501
same,glycan array binding signal (z-score),[18],4.91
same,glycan array binding signal (z-score),[19],-0.222
same,glycan array binding signal (z-score),[20],-0.251
same,glycan array binding signal (z-score),Gal(b1-3)GlcNAc,-0.277
same,glycan array binding signal (z-score),[21],-0.333
same,glycan array binding signal (z-score),[22],-0.334
same,glycan array binding signal (z-score),[23],0.626
same,glycan array binding signal (z-score),[24],-0.315
same,glycan array binding signal (z-score),[25],-0.347
same,glycan array binding signal (z-score),[26],-0.312
same,glycan array binding signal (z-score),[27],-0.302
